Article PMC4336329 (PLoS ONE, 2015)
Hit rate of the full screen: of about 310,000 compounds, about 14,000 (4.5%) showed an effect of 50% or more. Effects have a minus sign here. This is one part of the list.

molecular target: human ether-à-go-go-related gene (hERG) potassium channel (human, UniProt Q12809); experiment: primary screen, population patch clamp on CHO cells stably expressing hERG
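Also: peak tail current of the secondary pulse compared with the same well before compound.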

human ether-à-go-go-related gene (hERG) potassium channel, sequence (Q12809 whole entry, looked up): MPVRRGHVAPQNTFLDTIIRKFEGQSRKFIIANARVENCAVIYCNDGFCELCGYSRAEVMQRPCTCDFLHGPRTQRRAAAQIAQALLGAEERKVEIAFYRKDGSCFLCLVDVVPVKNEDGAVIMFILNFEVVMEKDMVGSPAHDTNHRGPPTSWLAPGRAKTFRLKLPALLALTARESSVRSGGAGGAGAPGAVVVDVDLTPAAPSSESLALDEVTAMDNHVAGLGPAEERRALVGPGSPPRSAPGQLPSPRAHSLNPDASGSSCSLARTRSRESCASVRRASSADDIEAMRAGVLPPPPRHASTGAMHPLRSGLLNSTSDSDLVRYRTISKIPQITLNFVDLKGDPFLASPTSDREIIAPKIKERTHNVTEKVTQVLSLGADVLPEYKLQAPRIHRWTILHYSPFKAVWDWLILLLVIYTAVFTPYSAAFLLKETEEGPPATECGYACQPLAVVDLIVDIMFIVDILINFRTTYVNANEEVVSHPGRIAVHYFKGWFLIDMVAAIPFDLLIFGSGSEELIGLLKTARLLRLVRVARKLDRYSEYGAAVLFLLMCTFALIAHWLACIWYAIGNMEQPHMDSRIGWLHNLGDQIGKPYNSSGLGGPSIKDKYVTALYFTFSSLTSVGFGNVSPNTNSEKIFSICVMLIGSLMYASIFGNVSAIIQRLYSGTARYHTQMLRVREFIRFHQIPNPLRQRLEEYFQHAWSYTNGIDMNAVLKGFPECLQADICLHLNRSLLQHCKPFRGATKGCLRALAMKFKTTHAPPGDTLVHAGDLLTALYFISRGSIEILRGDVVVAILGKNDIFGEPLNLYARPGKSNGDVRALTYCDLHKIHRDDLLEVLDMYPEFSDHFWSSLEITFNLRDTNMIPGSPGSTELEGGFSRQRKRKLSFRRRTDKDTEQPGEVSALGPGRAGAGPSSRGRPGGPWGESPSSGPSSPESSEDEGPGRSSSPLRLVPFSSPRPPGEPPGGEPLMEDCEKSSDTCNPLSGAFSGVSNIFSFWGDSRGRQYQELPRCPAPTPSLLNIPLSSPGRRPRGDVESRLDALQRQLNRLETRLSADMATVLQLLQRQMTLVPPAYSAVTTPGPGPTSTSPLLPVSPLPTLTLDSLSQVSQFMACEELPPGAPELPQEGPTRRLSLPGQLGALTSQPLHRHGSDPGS

| Structure (SMILES) | hERG current change (%, negative = inhibition) at 10uM [%] |
| --- | --- |
| N#CCCN(CCC#N)C(=O)COc1ccc(Cl)cc1Cl | -13.6 |
| Cc1ccc(N2CCN(S(=O)(=O)c3ccc(F)cc3)CC2)c(C)c1 | 9.58 |
| Cc1nn(CC2CC2)c(=O)n1-c1ccc(C(C)C)cc1 | 2.14 |
| Cc1ccc[n+](/C(=C\C(=C=[N-])C#N)C(=O)c2ccc(Cl)cc2)c1 | -8.65 |
| COc1ccc(S(=O)(=O)NC(C)C(=O)NCc2ccncc2)cc1C (centres unmarked) | 15.3 |
| COCCn1c(=NC(=O)c2nc3ccccc3s2)sc2cc(S(C)(=O)=O)ccc21 | -21 |
| Br.c1ccc(NNC2=NCCS2)cc1 | 19.8 |
| CCc1cccc(NS(=O)(=O)c2c(C)[nH]c(=O)[nH]c2=O)c1 | 20.8 |
| CCN(C(=O)CN1c2ccccc2CC1C)c1c(N)n(Cc2ccccc2)c(=O)[nH]c1=O (centres unmarked) | 20.4 |
| CCOc1[nH]n(-c2ccccc2)c(=O)c1C=NCc1ccncc1 | -50 |
| O=C1CCC(=O)N1OCCCCOc1ccccc1 | -4.34 |
| CC1(C)CC(N2CCN(Cc3ccccc3)CC2)=CC(=[N+]2CCCCC2)C1.[I-] | 7.04 |
| CCn1nnnc1SCC(=O)Nc1nc2ccc(OC)cc2s1 | -0.034 |
| COc1ccc(CC(=O)Nc2cccc(-c3nnc(-c4cccc(C)c4)o3)c2)cc1OC | 11.3 |
| CCCn1c(SCC(=O)NC2CC2)nnc1-c1ccccn1 | -2.29 |
| COc1nc(Nc2ccc([N+](=O)[O-])cc2)nc(NC2CCCCC2)n1 | -1.47 |
| COc1ccc(NC(=O)CS(=O)CC(=O)Nc2cccnc2)cc1 (centres unmarked) | 12.9 |
| COc1ccccc1NC(=O)C1CCN(S(=O)(=O)c2ccc3c(c2)NC(=O)CO3)CC1 | 9.58 |
| CCc1ccccc1NC(=S)N(Cc1cccnc1)Cc1ccco1 | -18.8 |
| COc1cc2c(cc1OC)C(NC(=O)C(F)(F)F)CNC2=O (centres unmarked) | 16.1 |
| CC(=O)c1c(C)[nH]c(C(=O)Nc2cccc3ccccc23)c1C | 10.7 |
| COc1cc(-c2nc3cnccn3c2Nc2ccccc2)ccc1O | -0.787 |
| O=C1C=C(c2ccccc2)OC(c2ccccc2)O1 (centres unmarked) | 1.43 |

| Structure (SMILES) | hERG current change (%, negative = inhibition) at 10uM [%] |
| --- | --- |
| COc1cc2c(cc1OC)C[N+](C)(C)CC2.[I-] | 20.1 |
| CC(C)CC(NC(N)=O)C(=O)OCC(=O)N(Cc1ccccc1)Cc1ccccc1 (centres unmarked) | 15.6 |
| Cc1ccc(O)c(C2=NNC(c3ccc(Cl)cc3)C2)c1 (centres unmarked) | 22.8 |
| CC(C)CC(=O)N1CCC(O)(CS(=O)(=O)Cc2ccccc2Cl)CC1 | -0.687 |
| Cc1nc(N2CCCCCC2)c2ccccc2n1.Cl | -51.5 |
| COc1ccc2c(c1)Cc1sc(NC(=O)c3ccccc3)nc1-2 | 8.04 |
| COc1ccccc1C(=O)N/C(=C\c1cn(S(=O)(=O)N(C)C)c2ccccc12)C(=O)N1CCCC1 | 14.6 |
| N#Cc1c(C(F)(F)F)cc(-c2cccs2)nc1SCc1cccnc1 | 5.31 |
| Cc1cccc(OCCSc2nc3ccccc3n2CCC(=O)O)c1 | 6.39 |
| CC(=O)c1ccc(N2CCN(C3CCC(C(C)(C)C)CC3)CC2)cc1 (centres unmarked) | 2.12 |
| CCN(CC)C(=O)Cn1c(=O)oc2ccccc21 | 15.7 |
| Cc1ccc(S(=O)(=O)N(CC(=O)Nc2ccc(Cl)c([N+](=O)[O-])c2)C2CCCCC2)cc1 | 8 |
| O=C(NC(=S)Nc1ccccc1N1CCCC1)c1ccc(F)cc1 | 9.08 |
| O=[N+]([O-])c1ccc(CN2CCN(c3ccccc3)CC2)o1 | 9.7 |
| CCSCc1nnc(SCC(=O)Nc2ccc(F)cc2)n1CC | -13.7 |
| CCOC(=O)c1cc(-c2cccs2)[nH]n1 | 4.38 |
| CCOC(=O)c1cc(-c2ccccc2)n(Cc2cc(CC)no2)n1 | -16.3 |
| CCC1=C(OC(=O)N(CC)CC)N2C(=O)OC(=NCCc3c[nH]c4ccccc34)[C@]2(Cc2ccccc2)[C@H]2C1=CC[C@H]1C(=O)N(C)C(=O)[C@H]12 | 15.6 |
| Cc1ccc(S(=O)(=O)N2CCOC2CNC(=O)C(=O)NCCN(C)C)cc1 (centres unmarked) | 13.4 |
| Cc1c(C(Nc2ccccn2)c2ccc(Cl)cc2)c(=O)n(-c2ccccc2)n1C (centres unmarked) | -18.6 |
| O=C1CC(SC2=NCCS2)C(=O)N1c1ccc(Br)cc1 (centres unmarked) | -3.52 |
| NC(=O)c1cc(-c2csc(NCCc3ccccc3)n2)ccc1O | 6.05 |
| CC(=O)c1cccc(N(C(=O)CNC(=O)c2cccs2)C(C(=O)NCC2CCCO2)c2ccccc2)c1 (centres unmarked) | 12.1 |

| Structure (SMILES) | hERG current change (%, negative = inhibition) at 10uM [%] |
| --- | --- |
| Cc1c(NC(=O)NCCN2C(=O)C3C4C=CC(C4)C3C2=O)c(=O)n(-c2ccccc2)n1C (centres unmarked) | 7.63 |
| Clc1ccc(Nc2ccc(NCc3ccccc3)nn2)cc1 | -37.8 |
| CC(=O)c1cccc2c(O)c(C3=Nc4ccccc4C3=O)[nH]c12 | -18.5 |
| COc1ccc(Cl)cc1NC(=O)CN(C)CC(=O)NCc1cccs1 | -31.6 |
| COCc1cc(C)nc(SCc2ccccc2)c1C#N | 21.2 |
| Clc1ccc(/C=N/Nc2nn[nH]n2)cc1 | 12.6 |
| COc1ccccc1NC(=O)COC(=O)CC(C)(C)CC1=NS(=O)(=O)c2ccccc2N1 | -69.9 |
| Nc1cc(=O)[nH]c(SCCSc2cc(Cl)ccc2Cl)n1 | 8.3 |
| O=C(O)c1cccc(NC(=O)C2C3C=CC(C3)C2C(=O)O)c1 (centres unmarked) | 32.6 |
| O=C(CSc1nc(C(F)(F)F)cc(=O)[nH]1)Nc1nccs1 | 18.5 |
| CCOC(=O)C1(CC2CCCCO2)CCN(C(=O)Nc2ccc(SC)cc2)CC1 (centres unmarked) | 2.65 |
| O=C(CN1CCOCC1)Nc1cc([N+](=O)[O-])ccc1Cl | -17 |
| Cc1cccc(NC(=O)CSc2nc(C)c(Cc3ccccc3)c(=O)[nH]2)c1 | 18.5 |
| COc1ccccc1NC(=O)CN1CCN(CC(=O)Nc2cc(NC(C)=O)ccc2OC)CC1 | -50.3 |
| CN(Cc1ccccc1)S(=O)(=O)c1nnc(NC(=O)c2ccccc2)s1 | 34.1 |
| CCOC(=O)C1C(=O)CC(C)(O)C(C(=O)OCC)C1c1ccc(Br)o1 (centres unmarked) | -5.95 |
| Cn1cccc1C(=O)NC(=O)CSc1nc2ccccc2s1 | 11.6 |
| COc1ccccc1OC(C)C(=O)N1CCN(Cc2ccc3c(c2)OCO3)CC1 (centres unmarked) | 0.865 |
| CCOCCCn1cc(C(=O)c2cc(Br)ccc2O)cc(C#N)c1=O | -11.2 |
| CCOC(=O)CN1N=C(/C=C/c2ccc(OC)cc2)CCC1=O | 3 |
| Cc1ccc(C2NC(=S)NC3=C2N2CCC3CC2)cc1 (centres unmarked) | 1.2 |
| Cc1ccc(S(=O)(=O)[N-]c2c(C)n(C)n(-c3ccccc3)c2=O)cc1.[Na+] | 14.3 |
| CN(C)/C=C/C(=O)c1ccc([N+](=O)[O-])c(CS(=O)(=O)c2ccccc2)c1 | -26.4 |

| Structure (SMILES) | hERG current change (%, negative = inhibition) at 10uM [%] |
| --- | --- |
| Cc1noc(NS(=O)(=O)c2ccc(N/C=C\C(=O)c3ccccc3)cc2)c1C | 6.25 |
| COc1cccc(N2C(=O)C(O)=C(C(C)=O)C2c2ccc(OC)c(OC)c2)c1 (centres unmarked) | 7.3 |
| CCOc1ccc(C(=O)N/N=C/c2ccc(SC)cc2)cc1 | 2.51 |
| COc1ccc(C(C(=O)NC(C)(C)C)N(Cc2ccccc2)C(=O)CCC(=O)Nc2cc(C)on2)cc1 (centres unmarked) | 1.29 |
| CCn1cc(C(=O)O)c(=O)c2cc(F)c(N3CCN(S(=O)(=O)c4ccc5c(c4)OCCO5)CC3)cc21 | -14.2 |
| COCCNC(=O)COc1cccc(Oc2ccccc2)c1 | -5.42 |
| CC(=O)N1CCC(=NNc2ccc(S(N)(=O)=O)cc2[N+](=O)[O-])CC1 | 5.36 |
| CC[N+](C)(CC)CC(O)COCC1COc2ccccc2O1.[I-] (centres unmarked) | 1.73 |
| Cc1nc2ccc(NC(=S)NC(C)C)cc2nc1C | -14.9 |
| Cc1ccc(/C=C/C(=O)Nc2cccc3cccnc23)o1 | -3.68 |
| COc1ccc(CCNC(=O)c2ccccc2-c2ccccc2C(=O)O)cc1OC | 10.2 |
| CCn1cc(Br)c(-c2nc3ccccc3c(=O)n2N)n1 | -2.36 |
| CCCS(=O)(=O)C(=C1NCCO1)S(=O)(=O)CCC | 6.49 |
| CC1CCN(S(=O)(=O)c2ccc3ncn(CC(=O)N4CCN(C)CC4)c(=O)c3c2)CC1 | -16.3 |
| COc1ccc(-n2c(SC(CN3CCCCC3)CN3CCCC3=O)nc3ccccc3c2=O)cc1.Cl (centres unmarked) | -8.82 |
| COc1ccc(-n2cc(C(=O)O)c3ccccc3c2=O)cc1 | -11.3 |
| CCOc1cc(Br)c(CC(=O)O)cc1OCC | 3.03 |
| CC(=O)CC(=O)Nc1ccc2ccccc2c1 | 13 |
| Cn1nc(-c2ccc(NCCO)c([N+](=O)[O-])c2)c2ccccc2c1=O | -2.29 |
| C(=N\Nc1nc(Nc2ccccc2)nc(Nc2ccccc2)n1)/c1cccnc1 | -4.87 |
